Experimental data from the antibiotic and cytotoxicity screens of Wong et al. (2023).
The other results are listed elsewhere or left out.

Key:
HSkMC = human skeletal muscle cells; test: cytotoxicity call (relative viability < 0.9); conditions: 10 µM
S. aureus RN4220 = test: growth inhibition call (relative growth <= 0.2); conditions: 50 µM

| SMILES | cytotoxicity call (HSkMC) | growth inhibition call (S. aureus RN4220) |
| --- | --- | --- |
| CO[C@@H]1[C@H](O[P@@](=O)(OC[C@H]2O[C@@H](n3cnc4c(N)ncnc43)C[C@@H]2O)SCOC(=O)OC(C)C)[C@@H](CO)O[C@H]1n1ccc(=O)[nH]c1=O | inactive | inactive |
| COCCCNC(=O)C[C@H]1SC(=N)NC1=O | inactive | inactive |
| COc1cnc(NS(=O)(=O)c2ccc(N)cc2)nc1 | inactive | inactive |
| C[C@H]1CN([C@@H](C)CO)S(=O)(=O)c2ccc(C#CCN(C)C)cc2O[C@@H]1CN(C)Cc1ccc2c(c1)OCO2 | inactive | inactive |
| C[C@@H]1CCCCO[C@H](CN(C)C(=O)C2CCCCC2)[C@@H](C)CN([C@H](C)CO)C(=O)c2cc(NC(=O)c3ccccc3)ccc2O1 | inactive | inactive |
| CO[C@@H]1CN(C)C(=O)c2cc(NC(=O)Nc3ccccc3F)ccc2OC[C@H](C)N(Cc2ccccc2C(=O)O)C[C@H]1C | inactive | inactive |
| C[C@@H]1CCCCO[C@H](CN(C)C(=O)C2CCCCC2)[C@H](C)CN([C@H](C)CO)C(=O)c2cc(NC(=O)c3ccccc3)ccc2O1 | inactive | inactive |
| COc1ccc(S(=O)(=O)N(C)C[C@@H]2Oc3c(NS(=O)(=O)c4ccccc4)cccc3C(=O)N([C@H](C)CO)C[C@H]2C)cc1 | inactive | inactive |
| N#C[C@H]1N[C@H](CO)[C@H]1c1ccccc1 | inactive | inactive |
| Cc1ccc(S(=O)(=O)Nc2ccc3c(c2)CC(=O)N([C@@H](C)CO)C[C@H](C)[C@@H](CN(C)Cc2ccncc2)O3)cc1 | inactive | inactive |
| O=C1CCC(c2ccc(O)cc2)CC1 | inactive | inactive |
| COc1ccc(NC(C)=S)cc1C | inactive | inactive |
| CN(C)C(=O)Cn1c(=O)oc2ccccc21 | inactive | inactive |
| CC(C)NC(=O)N(C)C[C@@H]1Oc2ccc(NC(=O)Nc3ccc4c(c3)OCO4)cc2CC(=O)N([C@H](C)CO)C[C@H]1C | inactive | inactive |
| C=CCC[C@H](Cc1ccc(F)cc1)C(=O)OC[C@@H]1CCCN1C(=O)[C@H](CC=C)CC(=O)N(CCO)Cc1ccccc1 | inactive | inactive |
| CCOC(=O)[C@H](C(C)=O)[C@H]1CCS(=O)(=O)C1 | inactive | inactive |
| Cc1ccc(S(=O)(=O)Nc2ccc3c(c2)C(=O)N([C@@H](C)CO)C[C@@H](C)[C@@H](CN(C)Cc2ccc(C(F)(F)F)cc2)OCCCC[C@H](C)O3)cc1 | inactive | inactive |
| Cc1ccc(S(=O)(=O)Nc2ccc3c(c2)C(=O)N([C@@H](C)CO)C[C@@H](C)[C@H](CN(C)C(=O)Cc2ccccc2)OCCCC[C@H](C)O3)cc1 | inactive | inactive |
| COc1ccc2c3c(n(c2c1)C)[C@H](CO)N(C[C@]13CCN(CC1)C(=O)c1ccccc1F)C(=O)Nc1ccc(cc1)F | inactive | inactive |
| C[C@@H]1CN([C@H](C)CO)C(=O)c2cc(NC(=O)Nc3ccc(C(F)(F)F)cc3)ccc2O[C@@H]1CN(C)C(=O)Nc1ccc2c(c1)OCO2 | inactive | inactive |
| COCC(=O)N1C[C@]2(CCN(CC2)C(=O)CN2CCOCC2)c2c([nH]c3cc(ccc23)OC)[C@@H]1CO | inactive | inactive |
| CN(CC=CC#CC(C)(C)C)Cc1cccc2ccccc12.Cl | inactive | inactive |
| COc1ccc(CN(C)C[C@H]2OCCCC[C@@H](C)Oc3ccc(NS(=O)(=O)c4ccc(F)cc4)cc3C(=O)N([C@H](C)CO)C[C@@H]2C)cc1 | inactive | inactive |
| C[C@@H]1CN([C@H](C)CO)C(=O)c2cc(NC(=O)Nc3ccc(C(F)(F)F)cc3)ccc2O[C@H]1CN(C)Cc1ccncc1 | inactive | inactive |
| C[C@@H]1CN([C@H](C)CO)C(=O)c2cccc(NC(=O)c3nc4ccccc4s3)c2O[C@H]1CN(C)CC1CCCCC1 | inactive | inactive |
| OC[C@H]1O[C@H](C#Cc2ccccc2)C=C[C@@H]1O | inactive | inactive |
| CC(C)NC(=O)Nc1ccc2c(c1)C(=O)N([C@@H](C)CO)C[C@@H](C)[C@H](CN(C)C(=O)Nc1ccc(F)cc1)OCCCC[C@@H](C)O2 | inactive | inactive |
| CC[C@H](C(=O)N1CCCC[C@H]1C(=O)O[C@H](CCc1ccc(OC)c(OC)c1)c1cccc(OCC(=O)NCCNC(=O)COc2cccc([C@@H](CCc3ccc(OC)c(OC)c3)OC(=O)[C@@H]3CCCCN3C(=O)[C@@H](CC)c3cc(OC)c(OC)c(OC)c3)c2)c1)c1cc(OC)c(OC)c(OC)c1 | inactive | inactive |
